Inhibition data for 97 compounds are collected here from PubChem BioAssay AID485344 (National Center for Advancing Translational Sciences (NCATS), 2010).

The structures appear in SMILES notation. Out of some 340,000 compounds screened, about 6,900 (2%) were called active. No stated cut-off is given here; in the data, active means inhibition above about 30%; inactive means below that, where a call was filed. This is a selection; strong and weak results do not stand in their true shares. The source gives no active or inactive call for entries shown without one.

Chain of UniProt P14416 (P14416 whole entry, looked up): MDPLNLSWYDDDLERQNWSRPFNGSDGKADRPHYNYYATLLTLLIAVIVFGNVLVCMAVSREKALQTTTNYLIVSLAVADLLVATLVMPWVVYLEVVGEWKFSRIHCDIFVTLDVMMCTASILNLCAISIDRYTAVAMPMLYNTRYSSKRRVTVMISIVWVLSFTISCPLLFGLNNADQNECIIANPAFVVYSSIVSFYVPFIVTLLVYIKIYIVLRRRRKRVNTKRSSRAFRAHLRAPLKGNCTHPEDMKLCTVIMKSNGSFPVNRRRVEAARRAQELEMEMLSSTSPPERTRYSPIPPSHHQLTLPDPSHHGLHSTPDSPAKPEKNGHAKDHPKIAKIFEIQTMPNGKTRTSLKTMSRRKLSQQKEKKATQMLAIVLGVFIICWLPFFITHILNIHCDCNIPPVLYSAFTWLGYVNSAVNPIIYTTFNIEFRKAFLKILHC

In the assay the target is D(2) dopamine receptor (Homo sapiens) (UniProt P14416). The experiment in a line: HTS Assay for Allosteric Antagonists of the Human D2 Dopamine Receptor: Primary Screen for Antagonists. Further: 0% is about no effect. The settings on record: HEK293 TREx D2 cells, calcium flux, dopamine EC80; at 10 µM; stronger effect = higher value. In short, it runs like this:
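Calcium flux kinetic readout in an inducible HEK293 TREx D2 line plated overnight at 30 C. After 180 s compound exposure, an EC80 dopamine challenge follows with another 180 s kinetic read to detect antagonism.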
In general terms: Calcium flux is commonly read through the fluorescence of an indicator in the cells.
As to `CCS(=O)(=O)N1CCC(n2c(C(F)(F)F)nc3cccnc32)CC1`, the inhibition (commonly the relative decrease from the control value, in per cent) was -2.91%. With `CCCCOc1cccc(C2c3c(oc4ccccc4c3=O)C(=O)N2c2ccccn2)c1` (configuration not stated), the inhibition came to 1.68%.

`CCc1ccc(C(=O)c2cn(CC(=O)Nc3ccc(OC)c(OC)c3)c3ccc(C)cc3c2=O)cc1`: the inhibition amounted to 21.8%. The value for `CCN(CC)c1cc(C)c2cc(NC(=O)c3ccccc3OC)ccc2n1` was 1.22%. `Cc1cc(C)c(NC(=O)CSc2nc3nc(C)cc(C)n3n2)c(C)c1`: the inhibition is -4.18%. The value for `CCCCn1c(SCC(=O)NCCCOC)nc2c(sc3ccccc32)c1=O` was 17.4%; that for `CCn1c(=O)c2sccc2n2c(CCCC(=O)N3CCN(c4cc(Cl)ccc4C)CC3)nnc12` was -10.9%; that for `Nc1cccc(-c2cn3ccsc3n2)c1` was -4.97%.

Turning to `CCn1nnnc1-c1ccc(OC)c(S(=O)(=O)Nc2ccc(OC)cc2)c1`, the inhibition is active: 36.5%. As to `Cc1ccc(NC(=O)c2oc3ccccc3c2NC(=O)c2ccccc2C)cc1`, the inhibition is -21.2%. As to `COc1ccc(Cn2c(=O)c3cccnc3n(Cc3cccc(OC)c3)c2=O)cc1`, the inhibition is -0.579%. The value for `CCOC(=O)c1c(-c2ccccc2)oc2ccc(NS(=O)(=O)c3ccc(C)cc3C)cc12` was -2.2%; that for `CSc1nnc(NC(=O)Cc2coc3cc(C)ccc23)s1` was -7.97%.

For the compound `CCOC(=O)c1c(-c2ccc(C)cc2)csc1NC(=O)c1nc(SCC)ncc1Cl`, the inhibition was -9.84%.

`Cc1ccc(-n2c(=O)c3ccc(C(=O)NCc4ccccc4Cl)cc3n(Cc3ccccc3F)c2=O)cc1`: the inhibition is -13.4%. With `COc1cccc(NS(=O)(=O)c2ccc3[nH]cc(C(=O)N4CCCCCC4)c(=O)c3c2)c1`, the inhibition is -6.93%. `CCc1ccc(CN(Cc2cn[nH]c2-c2ccc(OC)cc2)C(=O)Nc2ccc(C)c(F)c2)cc1`: the inhibition was -10.8%. With `CCOc1ccc(CNC(=O)c2cc3ccccn3n2)cc1OC`, the inhibition was -4.88%. The value for `Cn1c(=O)c2c(-c3cccc(Br)c3)n(CCO)cc2n(C)c1=O` was 7.62%; that for `CCN1CCN(c2oc(/C=C/c3ccccc3OC)nc2C#N)CC1` was 14.3%.

Take `O=c1c2cc3c(cc2nc2sc(Nc4ccc(F)c(Cl)c4)nn12)OCO3`: the inhibition came to 17.6%. The value for `COc1cc(OC)c(N(C)C(=O)Cn2ncc3c([nH]c4ccccc43)c2=O)cc1Cl` was -12.9%. The value for `CN(Cc1ccccc1)C(=O)C1CCN(S(=O)(=O)Cc2ccccc2)CC1` was -18%; that for `COc1cc(/C=C(\C#N)c2nc3ccccc3n2C)cc(OC)c1OC` was -6.06%; that for `Cc1ccc(NC(=O)c2cc(S(=O)(=O)N3CCCC(C)C3)cn2C)c(Br)c1` (configuration not stated) was -17.9%. For the compound `Cc1ccc(CNC(=O)CCc2c(C)nn(-c3ccc(N4CCCCC4)nn3)c2C)cc1`, the inhibition came out at 3.01%.

As to `Cc1ccc(-c2nc3ccccn3c2Nc2ccc3c(c2)OCO3)cc1`, the inhibition is -6.27%. In the case of `Cc1csc2nc(-c3cccc(NC(=O)c4ccccc4Cl)c3)cn12`, the inhibition is -14.7%. The value for `CC(C)CN1CCN(Cc2ccc(C#CC(C)(C)O)cc2)CC1CCO` (configuration not stated) was active: 33.3%. Consider `Cc1ccc(S(=O)(=O)NCC(c2ccc(N(C)C)cc2)N2CCOCC2)cc1` (configuration not stated), for which the inhibition was 5.63%. The value for `O=C(NC1CCCCCC1)C1CCN(C(=O)N2CCOc3ccccc32)CC1` was -21.8%; that for `Cc1cccc(OCC(=O)OCc2cc(=O)n3nc(C4CCCCC4)sc3n2)c1` was 0.131%; that for `COc1ccc(C(=O)COC(=O)c2cccc(NC(=O)c3ccc(OC)c(OC)c3)c2)cc1` was -11.6%. The value for `CCOC(=O)C(CC)n1nc(C)n2c(cc3occc32)c1=O` (configuration not stated) was -5.41%. In the case of `Cc1ccc(-c2nnc(SCc3ccccc3C#N)o2)cc1`, the inhibition is -6.65%. Regarding `CCOc1cc(-c2nc3c(c(CC)nn3-c3ccccc3)c3cc(OC)c(OC)cc23)ccc1O`, the inhibition is -4.43%. The value for `COc1cccc(-c2nc(CS(=O)(=O)CC(=O)NCc3ccc(C)cc3)c(C)o2)c1` was -7.43%; that for `Cc1ccc(CN2C(=O)C(O)(c3c[nH]c4ccccc34)c3cc(Cl)ccc32)cc1` (configuration not stated) was -2.3%; that for `Cc1ccc2c(c1)NC(c1cccnc1)=NC(c1ccc(F)cc1)=N2` was 25.2%. The value for `COc1ccc(OCC(O)CNCCOc2ccccc2OC)c(C(C)(C)C)c1` (configuration not stated) was active: 71.2%; that for `COCCNC(=O)c1c(C)oc2nc(C)nc(N3CCOCC3)c12` was -1.78%; that for `CCOC(=O)c1c(NC(=O)c2ccccc2Cl)sc2c1CCCC2` was 3.11%.

Consider `CCOC(=O)c1cccc(NC(=O)c2ccc3c(Cl)c4c(nc3c2)CCC4)c1`, for which the inhibition was found to be 12.4%. The value for `Cc1ccc(NC(=O)Cn2nnc(-c3nc(-c4ccncc4)no3)c2N)cc1` was -1.96%; that for `CCOc1ccc2nc(C)cc(Nc3ccccc3OCC)c2c1` was 19.3%.

In the case of `CCCOc1ccc(CNC(=O)C(CC)n2nc(C)c3sc4ccccc4c3c2=O)cc1` (configuration not stated), the inhibition is -1.97%.

Consider `Cc1ccc(C(=O)O)cc1Nc1nc2ccccc2n2nnnc12`, for which the inhibition worked out at 0.847%. The value for `Cc1ccc(Cl)cc1N1CCN(C(=O)CCC(=O)Nc2ccc3nc(N4CCC(C)CC4)cc(C)c3c2)CC1` was -6.2%. The value for `COc1ccccc1N1CCN(C2CCCN(C(=O)c3oc(C)cc3C)C2)CC1` (configuration not stated) was active: 46%. As to `COc1ccc(C(CNC(=O)c2cc3c(s2)CCC(C)C3)N2CCCC2)cc1` (configuration not stated), the inhibition was active: 71.6%. Take `NNC(=O)CN1C(c2ccccc2)=Nc2ccc(Br)cc2C1c1ccccc1` (configuration not stated): the inhibition is active: 81.5%. The value for `CCOC(=O)c1noc2ncnc(Nc3ccc(F)cc3F)c12` was 6.15%. Regarding `Cc1cccc(C)c1NC(=O)Cn1c(=O)n(CC2CCC(C(=O)NCCc3ccccc3)CC2)c(=O)c2ccccc21` (configuration not stated), the inhibition stood at 26.3%. The value for `CCOC(=O)C1CCN(C(=O)C2CCN(C3=NS(=O)(=O)C(c4ccc(C)cc4)=C3CC)CC2)CC1` was -18.9%; that for `O=[N+]([O-])c1cc(-c2nc(-c3ccccc3)no2)ccc1N1CCN(c2ccccc2)CC1` was 6.14%. For the compound `Cc1ccc(CNC(=O)C2CCN(c3nc4ccccc4n(C)c3=O)CC2)cc1`, the inhibition is 23.6%.

Consider `CCOC(=O)CSc1nc2c(sc3ccccc32)c(=O)n1CCc1ccccc1`, for which the inhibition was -7.7%. Turning to `O=C(Nc1ccccc1C(F)(F)F)c1cc2ccccc2o1`, the inhibition was active: 47.4%.

For the compound `COc1ccc(-c2ccc3c(N)c(C(=O)NCc4ccc(Cl)cc4)sc3n2)cc1`, the inhibition is -4.39%. With `COC(=O)c1c(SC)nc2ccccc2c1OCc1ccccc1C`, the inhibition was -5.76%. For `O=[N+]([O-])c1ccc(N/N=C/c2ccccc2O)cc1`, the inhibition was active: 35.8%. The value for `CCc1ccc(NC(=O)C2CCN(S(=O)(=O)c3ccc4[nH]c5c(c4c3)CCCCC5)CC2)cc1` was 1.79%. For `O=C(CCn1c(=O)c2ccccc2n(Cc2ccc(F)cc2Cl)c1=O)NCc1ccc2c(c1)OCO2`, the inhibition was -7.61%.

As for `CCn1cc(C(=O)N2CCN(c3ccccc3F)CC2)c(=O)c2cc(S(=O)(=O)N(C)C3CCCCC3)ccc21`, the inhibition was -11.5%. With `O=C(CCN1CCN(c2ccccc2)CC1)N/N=C/c1ccc(O)c(O)c1O`, the inhibition is active: 78.1%. With `CCOC(=O)c1c(C)oc2nc(C)nc(NCc3ccc(Cl)cc3)c12`, the inhibition was -1.76%. Take `CC(=O)N1CCc2cc(Br)cc(S(=O)(=O)N3CCC(C(=O)N(C)c4cc(C)ccc4C)CC3)c21`: the inhibition is 0.579%. On to `COc1ccc(-c2cc3ccc(O)c(CN4CCOCC4)c3oc2=O)cc1`, for which the inhibition came out at 18.5%.

Regarding `COc1cc(NC(=O)c2ccccc2)ccc1NC(=O)c1cc2ccccc2o1`, the inhibition was -25.1%. With `Cc1cccc(NC(=O)c2nc(S(C)(=O)=O)ncc2Cl)c1`, the inhibition is -9.25%. The value for `Cc1cccc(NC(=O)CSc2nc(-c3ccco3)nc3cc(=O)[nH]n23)c1` was -11.3%; that for `CC(C)CN1CCc2nc(N3CCN(C)CC3)ncc2C1` was 21.8%.

For `Cn1c(=O)cc(SCC(=O)N2CCN(c3ccc(F)cc3)CC2)c2ccc(Cl)cc21`, the inhibition is -7.68%.

Consider `Cc1ccc(Nc2c3c(nc4nncn24)CCC3)cc1C`, for which the inhibition came out at 20.6%.

With `O=C(CN1C(=O)COc2ccc(S(=O)(=O)N3CCOCC3)cc21)NCc1ccc(F)cc1`, the inhibition was found to be 11.3%. The value for `CCOc1cc(S(=O)(=O)n2ccnc2C(C)C)ccc1Cl` was 15%. As for `Cn1c(-c2ccc(CN3CCCCC3)o2)nc2ccccc21`, the inhibition was active: 33.8%. The value for `O=C(CSc1nc2c(oc3ccccc32)c(=O)n1-c1ccccc1F)Nc1ccccc1` was 18.8%; that for `Cc1ccc(CN2CCSc3ccc(C(=O)N4CCN(c5cc(C)ccc5C)CC4)cc32)cc1` was -1.46%. The value for `CCOC(=O)c1c(S(=O)(=O)N2CCCC(C(=O)N3CCN(c4cccc(C)c4C)CC3)C2)c(C)n(C)c1C` (configuration not stated) was 16.4%.

For the compound `O=C(CSc1nnnn1Cc1ccccc1)NCCc1ccccc1`, the inhibition is active: 31.9%. On to `COc1ccccc1N1CCN(C(=O)c2cc3c(=O)n(Cc4ccco4)ccc3nc2C)CC1`, for which the inhibition is -18.2%. The value for `N#Cc1nc(-c2ccc(COc3ccc(Cl)cc3)o2)oc1N1CCN(c2ccccc2)CC1` was 4.34%. Consider `CCOc1ccc(NC(=O)CCn2cnc3onc(-c4ccc(F)cc4)c3c2=O)cc1`, for which the inhibition was -3%. The value for `Cc1ccccc1NC(=O)CCn1cnc2onc(-c3ccc(F)cc3)c2c1=O` was -0.478%; that for `CCC(C)(C)C1CCc2c(sc(NC(=O)C3c4ccccc4Oc4ccccc43)c2C(N)=O)C1` (configuration not stated) was 19.3%; that for `O=S(=O)(c1ccccc1)c1nc(-c2cccs2)oc1SCc1ccccc1F` was 6.48%. For `CCCCC(CC)CNC(=O)C1CCN(S(=O)(=O)c2cccc3nsnc23)CC1` (configuration not stated), the inhibition was -10.5%. For `Cc1ccccc1OCC(=O)OCc1cc(=O)n2ccsc2n1`, the inhibition was found to be 5.64%. The value for `Cc1ccc2cc3cc(C(=O)Nc4ccc(F)cc4Cl)oc3nc2c1` was -23.7%; that for `CCN(CC)S(=O)(=O)c1ccc2c(c1)N(CC(=O)N1CCN(c3cccc(C(F)(F)F)c3)CC1)C(=O)CO2` was -16.7%; that for `Cc1c(Cl)cccc1-n1ncc(C(=O)Nc2ccc3c(c2)OCCO3)c1C1CCN(C(=O)OC(C)(C)C)CC1` was 5.93%.

Consider `CCOc1ccc(-c2nc(SC(C(C)=O)C(=O)N(C)C)c3c(=O)n(C)c(=O)n(C)c3n2)cc1` (configuration not stated), for which the inhibition is -9.42%. The value for `CCc1ccc(NC(=O)c2ccc3c(c2)nnn3CC)cc1` was 1.35%.

As to `COc1ccc(-c2nn(C)c3sc(C(=O)Nc4cccc(F)c4)cc23)cc1OC`, the inhibition is -23.2%.

With `Cc1ccc(NC(=O)Cn2c(-c3ccc4c(c3)OCO4)cn(-c3ccccc3)c2=O)cc1C`, the inhibition came out at 0.314%. The value for `Cc1ccc(C2Nc3ccccc3-n3c(-c4ccccc4)c4c(=O)n(C)c(=O)n(C)c4c32)o1` (configuration not stated) was -8.09%.
